# About 2,200 (0.71%) of roughly 310,000 compounds showed an effect of 50% or more. Effects have a minus sign here. This is one part of the list.
# Target: human ether-à-go-go-related gene (hERG) potassium channel (human, UniProt Q12809)
# Test: primary screen, population patch clamp on CHO cells stably expressing hERG
# Chain of human ether-à-go-go-related gene (hERG) potassium channel (Q12809 whole entry, looked up): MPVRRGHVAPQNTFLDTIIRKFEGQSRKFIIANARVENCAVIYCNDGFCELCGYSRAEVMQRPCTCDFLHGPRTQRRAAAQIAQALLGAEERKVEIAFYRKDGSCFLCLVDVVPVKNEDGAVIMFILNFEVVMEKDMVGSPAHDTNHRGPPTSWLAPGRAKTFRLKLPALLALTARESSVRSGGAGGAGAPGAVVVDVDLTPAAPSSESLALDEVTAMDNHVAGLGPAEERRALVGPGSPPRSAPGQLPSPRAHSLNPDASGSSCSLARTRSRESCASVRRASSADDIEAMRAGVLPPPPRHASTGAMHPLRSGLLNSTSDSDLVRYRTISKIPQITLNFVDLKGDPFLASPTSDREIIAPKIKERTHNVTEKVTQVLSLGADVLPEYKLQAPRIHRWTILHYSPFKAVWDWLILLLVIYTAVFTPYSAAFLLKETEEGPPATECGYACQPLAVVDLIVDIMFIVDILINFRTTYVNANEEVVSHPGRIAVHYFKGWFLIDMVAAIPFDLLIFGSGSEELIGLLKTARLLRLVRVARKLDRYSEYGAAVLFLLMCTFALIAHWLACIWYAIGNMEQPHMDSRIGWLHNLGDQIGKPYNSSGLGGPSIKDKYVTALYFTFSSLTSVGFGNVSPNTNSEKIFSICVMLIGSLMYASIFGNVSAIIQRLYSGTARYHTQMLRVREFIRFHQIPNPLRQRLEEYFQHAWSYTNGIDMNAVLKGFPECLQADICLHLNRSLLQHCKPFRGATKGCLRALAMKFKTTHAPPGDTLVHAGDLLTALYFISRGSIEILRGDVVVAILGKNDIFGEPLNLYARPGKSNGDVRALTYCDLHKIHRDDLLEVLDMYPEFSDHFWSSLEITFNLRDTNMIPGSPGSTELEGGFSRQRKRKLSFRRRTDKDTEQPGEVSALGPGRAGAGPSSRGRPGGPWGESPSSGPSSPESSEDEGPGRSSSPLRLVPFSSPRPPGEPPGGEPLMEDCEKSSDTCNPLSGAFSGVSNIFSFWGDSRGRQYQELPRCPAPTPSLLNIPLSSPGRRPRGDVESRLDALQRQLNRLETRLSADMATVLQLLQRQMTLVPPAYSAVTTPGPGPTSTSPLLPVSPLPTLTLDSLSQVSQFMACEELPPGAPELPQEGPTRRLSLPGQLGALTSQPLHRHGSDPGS
row,Structure (SMILES),"hERG current change (%, negative = inhibition) at 1uM"
1,CN1CCN(CC(=O)NN(Cc2ccccc2)c2ccccc2)CC1.O=C(O)C(=O)O,2.11%
2,C/C(=N\NC(=O)c1cc(C)nc2ccccc12)c1ccco1,6.1%
3,Cc1cc(C)n(CCN(C)Cc2nc(Cc3ccccc3F)no2)n1,-3.25%
4,CCCCCCN(C(=O)CCCCCN1C(=O)NC(c2ccc(-c3ccccc3)cc2)C(C(=O)OCc2ccccc2)=C1C)C(C(=O)NCCCC)c1ccc(OCC(=O)OC)c(C(=O)OC)c1 (centres unmarked),22.4%
5,CCCC[N+]12CCC(CC1)C(C(=O)c1cccs1)C2.[Br-] (centres unmarked),6.15%
6,O=S(=O)(NCCc1csc(-c2ccc(C(F)(F)F)cc2)n1)c1ccc2c(c1)OCCO2,6.04%
7,Cc1ccc(C)c(NC(=O)c2cc(S(=O)(=O)N3CCOCC3)cn2C)c1,6.73%
8,COc1ccccc1N1CC(C)(C)C(=O)N(C(=O)c2ccc(Cl)cc2)C1=S,8.3%
9,CCOc1ccc(N(CC(=O)NCc2ccc(Cl)cc2)S(=O)(=O)c2ccccc2)cc1,13.8%
10,CCS(=O)(=O)Nc1ccc2[nH]c(=O)[nH]c2c1,16.7%
11,CCC(C(=O)O)N1C(=O)C2CCCCC2C1=O (centres unmarked),5.66%
12,Fc1c(CSC(=S)N2CCOCC2)cccc1CSC(=S)N1CCOCC1,13.1%
13,O=C(Cn1nc(C(=O)O)c2ccccc2c1=O)c1cc(F)ccc1F,16%
14,O=C(CNC(=O)c1ccccc1Cl)N/N=C/c1ccc2c(c1)OCO2,18.7%
15,Cc1cc(N2CCCCC2)c(F)cc1[N+](=O)[O-],-5.81%
16,Cc1ccc(S(=O)(=O)N2CCC(N3CCC(C)CC3)CC2)cc1,4.46%
17,Cc1ccccc1C(=O)N1CCC(n2nccc2NC(=O)C2CC2)CC1,8.89%
18,Cc1ccc(NC(=O)CCc2nc3sc4c(c3c(=O)[nH]2)CCCC4)nc1,6.4%
19,Cc1ccc(C)c(NC(=S)c2ccc3ccccc3n2)c1,4.52%
20,COc1ccc2oc(C(=O)OCC(=O)N3C(C)CCCC3C)c(C)c2c1 (centres unmarked),11.3%
21,O=C(NC1CCCCC1)c1cc(Cl)ccc1[N+](=O)[O-],6.88%
22,Cc1nc([N+](=O)[O-])c(Br)n1CC(=O)c1ccccc1,-1.42%
23,COc1ccc(C(=O)C2CCN(C(=S)NCC3CCCO3)CC2)cc1 (centres unmarked),6.96%

row,Structure (SMILES),"hERG current change (%, negative = inhibition) at 1uM"
1,COc1ccc(S(=O)(=O)N2CCN(C(=O)c3cc(-c4ccccc4OC)n[nH]3)CC2)cc1,7.47%
2,O=C1CCNc2c(Cl)cccc21,13.4%
3,Cc1cc(C)cc(NC(=O)CSc2nc3ccncc3[nH]2)c1,7.44%
4,CCN1CCN(Cc2ccc(NC(=O)c3ccc(C)c(NC(=O)c4cccc(-c5cn[nH]c(=O)c5)c4)c3)cc2C(F)(F)F)CC1.O=C(O)C(F)(F)F,12.5%
5,CN(C)C(/C=C/Nc1ccc(C#N)cc1)=C(C#N)C#N,6.76%
6,O=CN1CCN(C(=S)Nc2ccc(OC(F)F)cc2)CC1,2.33%
7,COc1cc(OC)c(C2C(C(=O)O)c3ccccc3C(=O)N2C)cc1OC (centres unmarked),10.5%
8,O=c1cc(CO)oc(CN2CCN(Cc3ccccc3)CC2)c1O,8.83%
9,Cc1nc2ccccc2n1C1CC(=O)N(N(C)C)C1=O (centres unmarked),11.9%
10,Cc1cc(Cl)ccc1OCCn1cncn1,-4.7%
11,CC(C)Sc1nnc([C@@H](N)Cc2ccccc2)o1.Cl,6.97%
12,CCn1cc(CNC(=O)c2cccc([N+](=O)[O-])c2)cn1,9.63%
13,O=C(NCCc1ccco1)C(=O)NCC1CCCN1S(=O)(=O)c1ccccc1 (centres unmarked),3.3%
14,O=C(Nc1ccc(Br)cc1)N1CCc2ccccc2C1,18%
15,Cc1ccc(S(=O)(=O)c2nc(C)c3c(n2)CCC3)cc1,7.89%
16,OCC(O)CN(c1ccccc1)c1ccccc1 (centres unmarked),4.9%
17,O=C1/C(=C/c2cccnc2)Cc2ccc(Cl)cc21,3.47%
18,Cc1ccc(C(C[N+](=O)[O-])Sc2ccc(N)cc2)cc1 (centres unmarked),5.03%
19,CSc1ccc(Cl)c(C(=O)Nc2ccc(N3CCOCC3)cc2)c1,-0.184%
20,COc1ccc(CNCCc2c[nH]c3ccccc23)c(OC)c1C.O=C(O)C(=O)O,-11.7%
21,c1c(C2CCCCC2)n[nH]c1CN1CCCCC1,-14.2%
22,Cl.c1ccc(COC(CN2CCCCCC2)CN2CCCCCC2)cc1,2.72%
23,Cc1ccccc1CNC(=O)CCCn1ncn2c(cc3occc32)c1=O,13.7%

row,Structure (SMILES),"hERG current change (%, negative = inhibition) at 1uM"
1,O=C(Nc1nnc(-c2ccccc2F)s1)C1CCCO1 (centres unmarked),-0.0951%
2,COc1cccc(/C=C/C(=C2/C(=O)N(c3ccccc3)N=C2C)c2ccccc2)c1OC,-0.438%
3,CN(CCC#N)CC(=O)Nc1ccc(NC(=O)CN(C)CCC#N)cc1,4.5%
4,COCCn1cnc2c1c(=O)n(Cc1ccccc1C#N)c(=O)n2Cc1ccccc1,8.74%
5,Cc1cccc(C(=O)OC(C)CN2CCOCC2)c1.Cl (centres unmarked),7.05%
6,CC(=O)Nc1ccc(NC(=O)CCc2nc3sc4c(c3c(=O)[nH]2)CCCC4)cc1,4.95%
7,O=C(Nc1cccnc1)Nc1ccccc1Cl,3.18%
8,Cc1ccccc1NC(=O)CSc1ccc2nnc(-c3ccccn3)n2n1,7.85%
9,Cc1nc(C(=O)Nc2ccc(Cl)cc2)sc1C1(C)CC(c2ccccc2)=NO1 (centres unmarked),7.26%
10,O=C(COc1ccccc1Cc1ccccc1)Nc1cccnc1,-2.54%
11,O=C(O)c1ccccc1C(=O)Nc1ccc(S(=O)(=O)N2CCCC2)cc1,15.4%
12,Cc1ccc(OCc2cc(C(=O)NC3CCCCC3)no2)cn1,16.8%
13,CCOC(=O)CSc1nc2sc3c(c2c(=O)n1-c1ccc(C)cc1)CCN(C)C3,8.97%
14,CCc1cc(S(N)(=O)=O)cc(CC)c1NC(C)=O,10.4%
15,CC1Cc2ccccc2N1C(=O)COC(=O)/C=C/c1cccc(F)c1 (centres unmarked),7.2%
16,CC1=C(C(=O)OCc2ccccc2)C(c2cccc([N+](=O)[O-])c2)NC(=O)N1CCCCCC(=O)O (centres unmarked),12.8%
17,CNC(=S)NNC(=O)Cc1ccc(O)cc1,3.47%
18,COc1ccc(-c2c(C)c3ccc(O)cc3oc2=O)cc1,25.8%
19,CC(C)C(=O)NNC(=O)CC(=O)Nc1ccccc1C(=O)O,5.62%
20,O=C(/C=C/c1ccco1)NC(=S)Nc1ccccn1,0.309%
21,COc1ccc(S(=O)(=O)NC(N)=NCCc2ccccc2)cc1,4.07%
22,Cc1cc(C)n(C(=O)c2sc3cc(F)ccc3c2Cl)n1,3.96%
23,CCN(CC)CCNC(=O)c1cc2c(-c3cccc(OC)c3)nn(C)c2s1,9.13%

row,Structure (SMILES),"hERG current change (%, negative = inhibition) at 1uM"
1,CC#CCCCC(=O)Nc1ccc(C(=O)O)cc1,4.55%
2,Cc1cc(NC(=O)CN2C(=O)NC3(CCCCCC3)C2=O)ccc1Br,8.47%
3,CCCCOc1ccc(C(=O)NCc2ccco2)cc1,12%
4,N#Cc1nc(COc2ccc(Br)cc2)oc1NCCCn1ccnc1,-29%
5,CC1CCCCC1NC(=O)c1cc2ccccc2o1 (centres unmarked),0.12%
6,COCCCN=CC1=C(O)CC(C)(C)CC1=O,-6.98%
7,Fc1ccc(Br)cc1C1C=C(c2cccnc2)Nc2ncnn21 (centres unmarked),1.69%
8,O=C1CC2(CCCCC2)Oc2ccc(OCC(=O)N3CCOCC3)cc21,9.23%
9,CCc1ccc(NC(=O)CSc2nnc(-c3ccco3)o2)cc1,9.08%
10,CC(OC(=O)c1cccc(Cl)c1)C(=O)NC1CCCCC1C (centres unmarked),5.38%
11,CCC(c1nnnn1Cc1ccc2c(c1)OCO2)N1CCN(CC)CC1.Cl (centres unmarked),2.65%
12,Nc1c(C(=O)Nc2ccc3c(c2)OCCO3)nnn1Cc1ccccc1Cl,1.06%
13,COc1ccc(C(CC(=O)O)NC(=O)OC(C)(C)C)cc1 (centres unmarked),16.7%
14,CC1(C)CC(=O)C(/C=N/c2ccccn2)=C(O)C1,7.35%
15,C/C(=N\Nc1nccnc1Cl)c1ccc(F)cc1,3.43%
16,COc1ccc(OC)c(NC(=O)c2ccc3c(c2)OCO3)c1,15.4%
17,N#CCCN(C(=O)COC(=O)c1cc(S(=O)(=O)N2CCOCC2)ccc1Cl)c1ccc(F)cc1,-4.53%
18,CCCOc1cccc(C2C(C(=O)c3cccs3)=C(O)C(=O)N2Cc2cccnc2)c1 (centres unmarked),6.6%
19,CCOCCCNC(=O)CN1C(=O)/C(=C/c2ccccc2)Sc2ccccc21,5.17%
20,COc1cccc2[nH]c(C(=O)NCCCN3CCCC3=O)cc12,-17.1%
21,Cc1cc(C)nc(Nc2ncc(O)n2-c2ccc(C)c(C)c2)n1,13.2%
22,CCOC(=O)C1CCN(C(=O)c2cccc(Cl)c2)CC1,0.863%
23,COC(=O)c1ccc(C(=O)OC)c(NC(=S)N2CCN(c3cc(Cl)ccc3C)CC2)c1,3.63%

# From article PMC4336329 (PLoS ONE, 2015)
